The values below come from PMC4336329 (PLoS ONE, 2015).

About 2,200 (0.71%) of roughly 310,000 compounds showed an effect of 50% or more. Effects have a minus sign here. The list shows a part of the results. Where a SMILES comes first, the peptide text is derived from it. [ ]: non-standard residue; d: D form. The star is where a group is joined. ξ: configuration not given here. ξF = NC(Cc1ccccc1)C(=O)O; Cbz = O=C(OCc1ccccc1)*

human ether-à-go-go-related gene (hERG) potassium channel, sequence (Q12809 whole entry, looked up): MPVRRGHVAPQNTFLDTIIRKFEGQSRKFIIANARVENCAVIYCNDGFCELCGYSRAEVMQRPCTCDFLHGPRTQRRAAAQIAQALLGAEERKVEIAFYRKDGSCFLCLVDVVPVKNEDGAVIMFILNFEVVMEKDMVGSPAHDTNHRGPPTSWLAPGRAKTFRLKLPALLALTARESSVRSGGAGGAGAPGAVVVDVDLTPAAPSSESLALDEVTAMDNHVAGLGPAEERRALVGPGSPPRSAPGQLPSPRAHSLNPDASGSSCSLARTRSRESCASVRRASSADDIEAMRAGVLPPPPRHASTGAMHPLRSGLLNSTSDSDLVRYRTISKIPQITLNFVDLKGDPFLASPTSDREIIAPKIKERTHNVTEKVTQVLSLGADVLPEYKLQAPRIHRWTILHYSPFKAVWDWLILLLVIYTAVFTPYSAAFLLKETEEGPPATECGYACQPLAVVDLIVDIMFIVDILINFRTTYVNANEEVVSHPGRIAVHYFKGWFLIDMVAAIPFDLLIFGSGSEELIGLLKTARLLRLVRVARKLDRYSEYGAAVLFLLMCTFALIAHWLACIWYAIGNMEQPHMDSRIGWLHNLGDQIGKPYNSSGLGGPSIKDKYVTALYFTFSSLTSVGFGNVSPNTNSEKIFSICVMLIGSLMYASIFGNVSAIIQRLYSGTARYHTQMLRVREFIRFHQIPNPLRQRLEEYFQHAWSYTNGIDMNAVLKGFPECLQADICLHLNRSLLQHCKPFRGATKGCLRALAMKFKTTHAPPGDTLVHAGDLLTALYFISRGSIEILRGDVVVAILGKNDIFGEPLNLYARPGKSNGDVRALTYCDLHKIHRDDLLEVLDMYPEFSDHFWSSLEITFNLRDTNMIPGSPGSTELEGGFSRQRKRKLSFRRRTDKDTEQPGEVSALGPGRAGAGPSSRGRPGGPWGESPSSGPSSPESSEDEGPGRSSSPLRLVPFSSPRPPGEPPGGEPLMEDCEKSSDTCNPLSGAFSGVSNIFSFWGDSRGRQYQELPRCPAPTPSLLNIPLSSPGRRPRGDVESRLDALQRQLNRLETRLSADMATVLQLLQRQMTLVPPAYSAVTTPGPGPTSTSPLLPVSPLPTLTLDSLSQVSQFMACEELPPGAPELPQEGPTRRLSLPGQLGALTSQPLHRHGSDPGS

This assay addresses human ether-à-go-go-related gene (hERG) potassium channel (human, UniProt Q12809). Description: primary screen, population patch clamp on CHO cells stably expressing hERG.
Take `CC1CCCC(C)N1C(=O)CSc1nnc(CSc2ncccn2)n1C` (stereo not shown): the “hERG current change (%, negative = inhibition) at 1uM” value came out at 11.5%.
The same measure for `CCN(CC)S(=O)(=O)c1cc(C(=O)Nc2cccnc2Cl)ccc1Cl`: 8.2%; for `Cc1ccc(NC(=O)c2ccc(S(=O)(=O)N3CCC(C)CC3)cc2)cc1`: -6.71%; for `CCCN(CC(=O)Nc1ccccc1C)C(=O)c1ccc(-c2ccc(C(C)=O)cc2)o1`: 1.78%.
Regarding `CCc1cc(=O)oc2cc(C)cc(OCC(=O)N3CCC[C@@H]3C(=O)O)c12`, the “hERG current change (%, negative = inhibition) at 1uM” value was 10.7%.
For `CCc1ccc(S(=O)(=O)Nc2c(C)nc3nc[nH]n3c2=O)cc1`, the “hERG current change (%, negative = inhibition) at 1uM” value is listed as 15.5%.
`CN(C)C(=O)CN1CCN(Cc2cn(C)nc2-c2ccc3c(c2)OCCO3)CC1`: the “hERG current change (%, negative = inhibition) at 1uM” value amounted to 5.19%.
For `CC(=O)N(C)c1ccc(NC(=O)N2CCOCC2)cc1`, the “hERG current change (%, negative = inhibition) at 1uM” value stood at 8.06%.
The value for `COC(=O)C1C(c2ccc(OC)c(OC)c2)NC(c2ccc(OC)c(OC)c2)C(C(=O)OC)S1(=O)=O` (stereo not shown) was 14.7%; that for `CCN(CC(=O)Nc1c(F)cccc1F)C(=O)c1ccc(-c2ccc(C(C)=O)cc2)o1` was 2.62%.
The same measure for `O=C(CCc1ccccc1)NCCCN1CCOCC1`: 11%.
The value for `O=C(c1cc(C(=O)NCc2ccccc2)c(=O)n(Cc2ccccc2)c1)c1cc(Br)ccc1O` was -4.05%; that for `COc1ccc(CN2C(=O)[C@@H]3Cc4c([nH]c5ccccc45)C(C)(C)N3C2=O)cc1` was 9.64%.
Turning to `COCCNC(=O)C(=O)Nc1ccc(Br)cc1`, the “hERG current change (%, negative = inhibition) at 1uM” value is 10.9%.
As for `COc1cccc(C2=CC(c3cccs3)n3nnnc3N2)c1` (stereo not shown), the “hERG current change (%, negative = inhibition) at 1uM” value is recorded as 11.6%.
The same measure for `O=C(CN1CCC(C(=O)c2ccc(F)cc2)CC1)NCc1ccccc1F`: 2.84%; for `COc1ccc(C(=O)NCc2ccc(C)cc2)cc1S(=O)(=O)N1CCCc2ccccc21`: -4.48%.
The value for `COc1ccc(OC)c(NC(=O)c2cccc(C)c2[N+](=O)[O-])c1` was 12%; that for `COc1ccc(/C=C(/NC(=O)c2ccccc2)c2nc3ccc(Cl)cc3[nH]2)cc1OC` was -0.141%.
The value for `COc1ccccc1-c1nnc(NC(=O)CSc2nncn2C)s1` was -3.38%; that for `COC(=O)NCc1ccc(CNC(=O)OC)cc1` was 4.93%.
As to `CCCn1c(-c2cccc([N+](=O)[O-])c2)nc2c1c(=O)[nH]c(=O)n2Cc1ccccc1`, the “hERG current change (%, negative = inhibition) at 1uM” value is reported as -15.7%.
`CCOc1ccc(-c2cc(CCCC(=O)NCc3ccco3)no2)cc1`: the “hERG current change (%, negative = inhibition) at 1uM” value was 1.43%.
For the compound `O=C(Nc1cc([N+](=O)[O-])ccc1N1CCCC1)c1cccs1`, the “hERG current change (%, negative = inhibition) at 1uM” value is -11%.
`CN(C(=O)COC(=O)c1ccc(Cl)nc1)c1c(N)n(Cc2ccccc2)c(=O)[nH]c1=O`: the “hERG current change (%, negative = inhibition) at 1uM” value is given as 7.48%.
The same measure for `O=C(CSc1n[nH]c(-c2cccnc2)n1)Nc1ccc([N+](=O)[O-])cc1Br`: 2.55%; for `Cc1ccc(S(=O)(=O)NC(=O)c2cccc(Br)c2)cc1`: 7.59%; for `Cn1c(SCC(=O)Nc2ccc3c(c2)OCCO3)nnc1-c1ccccn1`: 6.5%.
Regarding `CCOC(=O)C(Cc1ccccc1)NC(=O)CNC(=O)CNC(=O)OCc1ccccc1` (stereo not drawn) (Cbz-Gly-Gly-[ξF]-OEt), the “hERG current change (%, negative = inhibition) at 1uM” value stood at 29.5%.
The same measure for `CSc1ccccc1-n1nnnc1SCC(=O)NCc1cccs1`: 2.6%; for `COc1ccccc1CNC(=O)N/C=C/c1ccc(Cl)cc1`: 8.8%.
As to `CCC(Sc1nc2n[nH]c(C)c2c(=N)n1-c1cccc(Cl)c1C)C(=O)N(CC)CC` (stereo not shown), the “hERG current change (%, negative = inhibition) at 1uM” value is reported as -6.09%.
The value for `Cn1ncc(Cl)c(Oc2ccccc2)c1=O` was 12.8%; that for `Cc1ccc2c(c1)COc1c3ccc(C(=O)O)cc3nn1-2` was 2.82%; that for `COc1ccccc1OCCn1c(=O)sc2ccccc21` was 18.2%.
As for `C/C(=N\NC(=O)COc1ccccc1)c1cccs1`, the “hERG current change (%, negative = inhibition) at 1uM” value turned out to be 12.2%.
The value for `CN1C(=O)C(CC(=O)Nc2ccc(F)cc2)N(CCCc2ccccc2)C1=S` (stereo not shown) was 3.93%; that for `O=C(NC(=S)NCCN1CCOCC1)c1cccc(Cl)c1` was 5.65%; that for `CCn1c(-c2nonc2NC(=O)c2ccccc2)nc2ccccc21` was -1.97%.
As for `Cc1nnc2c(NCC(C)c3ccccc3)nc3ccccc3n12` (stereo not shown), the “hERG current change (%, negative = inhibition) at 1uM” value is reported as 8.09%.
The same measure for `COc1ccc(-c2csc(N3CCN(c4cc5c(cc4Cl)nc(-c4ccncc4)n5CCOCCO)CC3)n2)cc1`: 12.9%; for `Cc1ccc(C(=O)N2CCC3(CC2)Oc2ccc(Cl)cc2C(=O)C32CC(c3ccccc3)=NO2)s1` (stereo not shown): 11.5%.
The same measure for `O=C(CN1CCN(CC(=O)Nc2ccccc2F)CC1)Nc1ccc2c(c1)OCCO2`: -21.4%; for `COc1ccc2oc(C(=O)OCc3nnc(-c4ccccc4)o3)c(C)c2c1`: 20.2%; for `Cc1ccc(C)c(S(=O)(=O)N2CCN(C(C(=O)Nc3ccc(F)cc3)c3ccccc3)CC2)c1` (stereo not shown): 11%.
Take `COc1ccc(C(=O)Nc2ccc(N3CCN(c4ccc(OC)cc4)CC3)c(C#N)c2)cc1`: the “hERG current change (%, negative = inhibition) at 1uM” value was 16.1%.
The same measure for `CCOC(=O)CN(C(=O)CSc1nnc2c(n1)[nH]c1ccc(F)cc12)c1ccccc1`: -7.59%; for `CCOC(=O)NNC1CC(=O)N(c2ccccc2)C1=O` (stereo not shown): 9.15%.
The same measure for `Fc1ccc(NC(=S)NC23CN4CN(CN(C4)C2)C3)cc1`: 12.2%.
The value for `CCNC(=S)N/N=C/c1ccc(OCCOc2ccccc2C)cc1` was 8%; that for `O=C(O)c1ccc(N/N=C/c2c(F)cccc2Cl)cc1` was 15.1%; that for `CN(CC(=O)Nc1ccc(Cl)c(C(F)(F)F)c1)C(=O)CCN1C(=O)C2CC=CCC2C1=O` (stereo not shown) was -6.3%.
Turning to `COc1ccc(OCC(=O)Nn2c(-c3cccc(OC)c3)nc3ccccc3c2=O)cc1`, the “hERG current change (%, negative = inhibition) at 1uM” value worked out at 3.51%.
The value for `Cc1cc(C)cc(NC(=O)NCc2ccccn2)c1` was 5.86%; that for `Cc1ccc2c(c1)C(O)(CC(=O)c1cccnc1)C(=O)N2` (stereo not shown) was -1.21%.
